Assay results: the RNAGym collection of RNA variant scans (doi:10.7554/elife.90254)
Read counts are not given, so values of variants with three or more changes are uncertain.

B1: LINE1-mini (parent)
chain: GGCAGAGCUCAACACAGCGUGGCAAAGUGGCUGUGGCUAGACUGCC

Variants of: B1
Experiment: self-cleavage, relative activity (ratio to wild type); higher = more cleavage; in vitro, sequencing; the parent is a self-cleaving ribozyme

Row | Variant | self-cleavage
1 | G5U U9G G35C U38C G40U | 0.03
2 | G7C C15U A24G G29C G33C C42G | 0.01
3 | C3G A12C C15A | 0.07
4 | C8A C23A G27U A39G U43A | 0.06
5 | A4C G17A G21U | 0.18
6 | A6G U9C A11G A41C G44U | 0.01
7 | C3U C18U G33U | 0.09
8 | A4C U32C G35C | 0.06
9 | A16U C31U G44C | 0
10 | G1A U9C C15A | 0.03
11 | G33U G36U C42G | 0.02
12 | C23G G33A G40U | 0.03
13 | A16U G22C U32C U43C C45G | 0.02
14 | A6C C13U G33U | 0.05
15 | G19A G29U C31A | 0.8
16 | G1U A6G A14U | 0.06
17 | A16U G33A C45U | 0.09
18 | G5A A11C C37U C46U | 0
19 | C10G A39G C46U | 0.01
20 | C3G G17A G36A | 0.5
21 | A4C A6G A11U A16C U34A | 0.04
22 | G17U G22U G29A | 0.5
23 | G1U C18G A24C | 0.12
24 | A4U C15G A39U U43C | 0.02

Row | Variant | self-cleavage
25 | A25G G33U U38C | 0.2
26 | A4U A11G G17U A39U | 0.06
27 | G17C G30U C37G | 0.06
28 | C23U C31U C46U | 0.34
29 | G35U A41C C45A | 0.01
30 | G2A A4U G40U | 0.27
31 | U9C G35A U38A | 0.02
32 | U20G G21C G40A C45U C46U | 0.78
33 | G1U G19A G35U U43A C45U C46A | 0.05
34 | G22C A26C C31A G35C C42U | 0.07
35 | U9C G35U U38C | 0.05
36 | C23G U43A C46G | 0.05
37 | G2C A25G U34A G40A | 0.08
38 | G2C G22U C31G G33U | 0.23
39 | U9C C23U U32G G33U C37U A39G | 0.02
40 | G19U G21A A24U C42A C46U | 0.11
41 | U9C G21A G27A G40U | 0.06
42 | C10A C13A C15G G44A | 0
43 | A6U G29C A39G | 0.07
44 | G29C G35C G40C | 0.02
45 | G1U G5U A14U G21U U28G | 0
46 | G7U A11C G22C G27C | 0.02
47 | A4U G7C C31A | 0.24
48 | G1U G5C C15U G35C | 0.01

Row | Variant | self-cleavage
49 | G7U G30U U32C G33U C46G | 0.07
50 | A11C G17U U20C C23A A24U | 0.03
51 | C10A G19C G21A A24U G30U G40U U43C | 0.02
52 | G2A G27A G36C A41G | 0.52
53 | U9C C31A G40U A41C | 0.01
54 | G5A C10G A11U | 0.02
55 | G33A A39U U43G | 0.02
56 | G7U C15A A39U | 0.09
57 | G21C A25U A26G | 0.74
58 | A14G G19A A41U | 0.32
59 | C10A G21C C42A | 0.02
60 | G1C G30U G36C A41C | 0.03
61 | A11G A12G G21C A24C U32G | 0.01
62 | A12G C18G G30A C45G | 0.06
63 | C10A C13A G17U U32C C37G | 0.01
64 | A6C A25U C46U | 0.9
65 | A6U U9A G19A G33A A39U C46A | 0.09
66 | G2A C10G A24U U34C C42G | 0.02
67 | G1A C8A A16C C18G | 0.14
68 | A4U C23U A24C C46U | 0.28
69 | G27A U28A G30C C42G | 0.06
70 | G1C G5A G27A C31U G33A U38A C45A | 0
71 | G17A G19A G22C U32C | 0.03
72 | G5U G19A U20G C37U | 0.02

Row | Variant | self-cleavage
73 | G5C U9G G35A | 0.03
74 | A4G G5A C18G | 0.03
75 | C10A A12C A16C C23A | 0.02
76 | G7U U9G U32A U43A G44U | 0.03
77 | G2U G33U G35C | 0.02
78 | G5C G29A C37U | 0.04
79 | G5U A14U C15A C18A | 0.08
80 | C13U A16C G19A G21U | 0.02
81 | A25C G33C U43A | 0.06
82 | A16C G22A G40U | 0.06
83 | C10A G22U G29U C42U G44A | 0.01
84 | U38G A39C G40A | 0
85 | G2A G22A U28A G40U C42G | 0.07
86 | U32A A39G C45A | 0.01
87 | C3A U34C C42G G44A | 0.08
88 | U9C C10A U28C | 0.08
89 | G5C G7A C31A | 0.16
90 | C15G G17U G33C | 0.03
91 | A12G A16C C23G G29A A39U | 0.04
92 | C13U G30U G33A C46A | 0.03
93 | A4U G5U C13G A14G G17C C23A G27C C42G G44U | 0.3
94 | A12U U28G G30U C45U | 0.07
95 | C3G A14U G19A G30C G44A | 0.03
96 | G2U G7A C42G | 0.04

Row | Variant | self-cleavage
97 | C3G U20A A25C G44C | 0.07
98 | C8U C31U C46G | 0.35
99 | C23U G33C G40C | 0.05
100 | A6U C8G G21U A39C | 0.05
101 | C10G U20G U38A | 0
102 | A14C U20C U28G C46U | 0.04
103 | C3U C10G U20G G33U G40U G44U | 0.01
104 | G36A U38C A39G | 0.31
105 | A14U A16G U34C | 0
106 | A6C G7U C8A C10G C18A U38A A41C C42G | 0.01
107 | G19U U28C C31A | 0.02
108 | G7A C13U G19U G35U | 0.07
109 | G2A C13U G27C | 0.24
110 | G2A C13A C18U | 0.24
111 | G2A G5C A14U G27A U34A | 0.11
112 | A12U A24G A39C | 0.12
113 | C23U A39G G40C C42G | 0.01
114 | G1A C15A G29A | 0.19
115 | C3U C37U U38C | 0.04
116 | G1A A26C A41G U43C | 0.02
117 | C8G G27A G29U | 0.15
118 | A14C G29U G40A U43G | 2.9
119 | G5U U28C C31U U43A G44A | 0.03
120 | G5C C13U G19A | 0.02

Row | Variant | self-cleavage
121 | G1A G5C C23A U34C | 0.07
122 | G17C U20C G21U G27C U32C G40U C42U | 0.03
123 | C3U C8A A11U A26C | 0.01
124 | G1A G19U G21C G27U G29U G40A | 0.05
125 | A6C G21A A39C U43A | 0.02
126 | G1C G5A C10U | 0.02
127 | C3A G5U U9G C37A U43A | 0.19
128 | A11U C18U U43A | 0.02
129 | G5U C13U A16C A24G C46U | 0.01
130 | U32G U43C G44A | 0.02
131 | G5A C10G U32C G36U C37A | 0
132 | C10A C13A G21U A25C A26U U32A C42A | 0.02
133 | C13A U20A G33U G36U | 0.41
134 | G5U C15G G29U C31A U34C | 0
135 | A24C C31A G36A C37G U43C | 0.03
136 | G7U G21A G22U A25G | 0.17
137 | A16U G17A G44A C45G | 0.1
138 | C8A A14U C23A A25C | 0.1
139 | G21A C31U U34A | 0.02
140 | G7U G21C G33A G36U A39G G44C | 0.02
141 | G1A A6U A14C G33U | 0.05
142 | C8U A12U C31U | 0.18
143 | G1C U38C C45G | 0
144 | A4G A11U C37A | 0.02

Row | Variant | self-cleavage
145 | C3U C8G U38G | 0.13
146 | G2U U32G U43G G44C C46U | 0.01
147 | A16G G21U G27U C37A | 0.03
148 | A26U U28A U43G | 0
149 | G7C A11C A24G A25G | 0.03
150 | C8G C23A G35C C45U | 0.02
151 | G22U A26U A39U | 1.26
152 | G7A C10G G17U C23A U43A | 0.04
153 | G2C C10G C13A G22A | 0.04
154 | U20G G21A A25C | 0.33
155 | A16U A25U G29U | 0.28
156 | G2U C10A G29U U32A G33C | 0
157 | A4G C10U G30U U32G U43G | 0.03
158 | A11G G36A U43G C45G | 0.04
159 | G17C A25G G35U | 0.06
160 | A4U G5U C8A G17U A26C | 0.2
161 | C3U G35C G40C | 0.1
162 | C15U C37A U38C | 0.03
163 | G5U G30A G33U | 0.04
164 | G5U C42A U43A | 0.07
165 | C10G G22C A24U | 0.06
166 | A24U G30U C42G | 0.04
167 | U34A G35A C45U | 0.05
